Results reported in the supplement of paper PMC10369915.
The other results are listed elsewhere or left out. No stated cut-off is given here; in the data, active = 3.2 or more and inactive = the rest. Most of these values are background signal.

How the values were obtained:
Assay in all cases: enrichment score (SH2-bound / input frequency) (ratio); bacterial display of known human phosphotyrosine sites (pTyr-Var adds point mutants) read by sequencing; higher = stronger binding; tyrosines were phosphorylated by kinases first
Details in all cases: peptide library: Human pTyr
[1] = target: SHP2 C-SH2 domain E139D
[2] = target: SHP2 C-SH2 domain wild-type
[3] = target: SHP2 N-SH2 domain L43F
[4] = target: SHP2 N-SH2 domain T42A
[5] = target: SHP2 N-SH2 domain T52S
[6] = target: SHP2 N-SH2 domain wild-type

Measured: enrichment score
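Further: displayed peptides selected on beads carrying the immobilized SH2 domain, with library peptides lacking any tyrosine serving as negative controls.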

AKGFGGQYGIQKDRV [HCLS1_HUMAN_198]
inactive: [1] 0.979 | [2] 1.02 | [3] 0.927 | [4] 1.02 | [5] 0.97 | [6] 1.05

EDEPEGDYEEVLEPE [HCLS1_HUMAN_397]
inactive: [1] 0.864 | [2] 1.11 | [3] 0.974 | [4] 1.07 | [5] 0.887 | [6] 1.13

SAANPIIYNFLSGKF [HCRTR1_HUMAN_358]
inactive: [1] 1.58 | [2] 1.44 | [3] 1.48 | [4] 1.54 | [5] 1.66 | [6] 1.95

TTGATYSYGPASWEA [AKAP8_HUMAN_53]
inactive: [1] 0.721 | [2] 0.458 | [3] 0.709 | [4] 0.69 | [5] 0.711 | [6] 0.447

IDPELARYLNRNAWE [HGS_HUMAN_329_YA]
inactive: [1] 0.811 | [2] 0.549 | [3] 0.638 | [4] 0.612 | [5] 0.738 | [6] 0.805

ARYLNRNYWEKKQEE [HGS_HUMAN_334]
inactive: [1] 1.27 | [2] 1.44 | [3] 0.997 | [4] 1.26 | [5] 1.26 | [6] 1.63

SKAVCSTYLQSRAAR [HIPK2_HUMAN_361_YA]
inactive: [1] 0.851 | [2] 0.614 | [3] 0.811 | [4] 0.853 | [5] 0.896 | [6] 0.664

IVKMLEKYLKGEDPF [AKAP8_HUMAN_539]
inactive: [1] 2.44 | [2] 2.35 | [3] 2.32 | [4] 2.28 | [5] 2.04 | [6] 3.08

SDRKGGSYSQAASSD [HLA-A_HUMAN_344]
inactive: [1] 0.618 | [2] 0.661 | [3] 0.65 | [4] 0.747 | [5] 0.594 | [6] 0.742

SGGKGGSYSQAACSD [HLA-B_HUMAN_344]
inactive: [1] 0.661 | [2] 0.498 | [3] 0.569 | [4] 0.675 | [5] 0.766 | [6] 0.732

SGRAGPSYSMPVHAA [HLTF_HUMAN_195]
inactive: [1] 0.611 | [2] 0.925 | [3] 0.711 | [4] 0.69 | [5] 0.677 | [6] 0.722

EAVVEEDYNENAKNG [HMGN5_HUMAN_76]
inactive: [1] 0.995 | [2] 1.26 | [3] 0.997 | [4] 1.03 | [5] 0.963 | [6] 0.845

GAGGADDYGGANDGA [HNRH2_HUMAN_246_YA]
inactive: [1] 0.609 | [2] 0.579 | [3] 0.473 | [4] 0.605 | [5] 0.521 | [6] 0.575

GMDNQGGYGSVGRMG [HNRH3_HUMAN_296]
inactive: [1] 0.675 | [2] 0.628 | [3] 0.613 | [4] 0.617 | [5] 0.668 | [6] 0.679

IKGRAQPYDPNFYDE [HNRNPK_HUMAN_225]
inactive: [1] 0.804 | [2] 0.696 | [3] 0.843 | [4] 0.796 | [5] 0.777 | [6] 0.772

IKGRAQPYDPNFADE [HNRNPK_HUMAN_225_YA]
inactive: [1] 0.827 | [2] 0.615 | [3] 0.569 | [4] 0.602 | [5] 0.625 | [6] 0.803

FYDETYDYGGFTMMF [HNRNPK_HUMAN_236]
inactive: [1] 1.8 | [2] 1.75 | [3] 1.91 | [4] 1.32 | [5] 1.64 | [6] 1.98

FADETADYGGFTMMF [HNRNPK_HUMAN_236_YA]
inactive: [1] 1.72 | [2] 1.56 | [3] 1.45 | [4] 1.52 | [5] 1.76 | [6] 1.68
